Assay results reported in PubChem BioAssay AID720709 (National Center for Advancing Translational Sciences (NCATS), 2013).
In all, about 360,000 compounds went through this assay and about 520 (0.14%) were called active. Inconclusive results, whose numbers are uncertain, are shown with a selection of clear calls. Calls follow the shape of the dose curve; as a rule, active = well fitted inhibition curve with a large enough effect; inconclusive = small, poorly fitted or top-dose-only effect; inactive = no such curve, though single readings can be large or run the other way. No potency is given beside an inconclusive call; the fits are too rough.

biological target: Rap guanine nucleotide exchange factor 3 (Homo sapiens) (UniProt O95398); assay: qHTS for Antagonist of cAMP-regulated guanine nucleotide exchange factor 3 (EPAC1): primary screen; settings: EPAC1 GEF assay, Rap1b-BODIPY-GDP exchange fluorescence; activity change, negative = inhibition: at 115 µM (top of the series); also: nearly all actives have a fitted effect of over 50% in size;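 as to activity change, negative = inhibition: plate controls were vehicle for no effect and positive control for full effect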
Chain of UniProt O95398 (O95398 whole entry, looked up): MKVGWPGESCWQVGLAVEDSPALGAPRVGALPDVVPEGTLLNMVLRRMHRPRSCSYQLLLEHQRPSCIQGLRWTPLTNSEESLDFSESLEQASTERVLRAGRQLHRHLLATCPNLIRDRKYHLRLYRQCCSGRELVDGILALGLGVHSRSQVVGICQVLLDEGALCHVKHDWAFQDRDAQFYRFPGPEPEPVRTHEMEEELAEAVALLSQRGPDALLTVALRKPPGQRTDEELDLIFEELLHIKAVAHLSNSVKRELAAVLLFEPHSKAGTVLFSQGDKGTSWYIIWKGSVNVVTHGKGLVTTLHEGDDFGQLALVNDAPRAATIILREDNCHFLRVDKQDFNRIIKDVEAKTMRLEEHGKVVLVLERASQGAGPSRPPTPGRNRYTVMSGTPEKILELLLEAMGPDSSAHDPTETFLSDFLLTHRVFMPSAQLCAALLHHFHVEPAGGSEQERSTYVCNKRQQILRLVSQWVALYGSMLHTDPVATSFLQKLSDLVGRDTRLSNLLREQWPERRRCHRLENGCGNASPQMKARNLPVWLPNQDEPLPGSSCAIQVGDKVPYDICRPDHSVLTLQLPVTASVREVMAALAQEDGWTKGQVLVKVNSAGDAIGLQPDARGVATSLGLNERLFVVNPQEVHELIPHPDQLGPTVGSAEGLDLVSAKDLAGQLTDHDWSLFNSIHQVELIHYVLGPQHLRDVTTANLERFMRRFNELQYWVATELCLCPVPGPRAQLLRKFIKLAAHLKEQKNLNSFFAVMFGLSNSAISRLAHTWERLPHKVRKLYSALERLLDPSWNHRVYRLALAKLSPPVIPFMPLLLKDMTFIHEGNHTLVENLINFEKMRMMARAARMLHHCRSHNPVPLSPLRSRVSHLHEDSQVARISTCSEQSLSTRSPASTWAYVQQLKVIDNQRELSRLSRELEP
Potency is read from the fitted curve at half-maximal effect; tags tell the direction and shape of the fitted curve.

SMILES	Potency	activity change, negative = inhibition
COc1ccc(NS(=O)(=O)c2ccc3nc(COc4ccc(Cl)c(C)c4)[nH]c3c2)cc1	inconclusive [inhibitor, full curve]	–
O=C(CNC(=O)c1ccc2c(c1)OCCO2)N/N=C/c1cccc(Br)c1	inconclusive [inhibitor, partial curve]	–
O=C(C1CCCN(Cc2ccccc2F)C1)N1CCc2ccccc2C1 (stereo unspecified)	inactive	–
c1csc(-c2nc(NCC3CCCO3)c3ccccc3n2)c1 (stereo unspecified)	inactive	–
COc1ccc2c(c1)-c1nc(/N=C/c3cccc(OC)c3O)sc1CC2	inconclusive [inhibitor, partial curve]	–
O=C(c1ccc(F)cc1)c1ccc(N2CCCCC2)cc1	inactive	–
Cc1cc(C)n(CCC(=O)N/N=C/c2c(O)ccc3ccccc23)n1	inconclusive [inhibitor, partial curve]	–
CCOc1ccc(NC(=O)CS(=O)(=O)c2cn(CC)c3ccccc23)cc1	–	inconclusive: -10.2% [inhibitor]
COc1ccc(C(=O)N(Cc2sccc2C)C2CCS(=O)(=O)C2)cc1 (stereo unspecified)	inactive	–
O=C(CCl)N1N=C(c2cccs2)CC1c1ccco1 (stereo unspecified)	inconclusive [inhibitor, full curve, poor fit]	–
COc1ccc(C(=O)/C=C/c2ccccc2)c(OC)c1	inconclusive [inhibitor, single point]	–
CN1CCN(C(c2ccc(C(F)(F)F)cc2)c2ccc3cccnc3c2O)CC1 (stereo unspecified)	inconclusive [inhibitor, partial curve, poor fit]	–
COc1cc(C(C)=O)ccc1Oc1cnccn1	inconclusive [inhibitor, single point]	–
O=C(NCc1cccc(Cl)c1)c1ccc(S(=O)(=O)Nc2cccc(C(F)(F)F)c2)cc1	inconclusive [inhibitor, partial curve]	–
S=c1[nH]nc(-c2ccccn2)n1/N=C/c1ccc(-c2ccccc2Cl)o1	inconclusive [inhibitor, single point]	–
COn1c(-c2ccc(Cl)cc2Cl)nc2ncccc21	inconclusive [inhibitor, full curve]	–
COc1ccc(C2=NOC(C)(c3nnc(Cc4ccccc4)o3)C2)cc1 (stereo unspecified)	inconclusive [inhibitor, single point]	–
O=S(=O)(c1ccc2ccccc2c1)N1CCN(C(=S)Nc2ccccc2F)CC1	inconclusive [inhibitor, single point]	–
COc1ccc(OC)c(S(=O)(=O)Nc2c(C)n(C)n(-c3ccccc3)c2=O)c1	inactive	–
CCN(C(=O)c1cc2c(C)nc3ccccc3c2o1)c1cc(Cl)ccc1OC	inconclusive [inhibitor, partial curve]	–
CCC(=O)N1CCc2cc(OC)c(OC)cc2C1COc1ccccc1OC (stereo unspecified)	inactive	–
Cc1ccccc1S(=O)(=O)NC(=O)C1(C)CCN1C(=O)CC1CCCC1 (stereo unspecified)	inactive	–

SMILES	Potency	activity change, negative = inhibition
CN(CC1COCCO1)c1nc2nonc2nc1N1CCSCC1 (stereo unspecified)	inconclusive [inhibitor, single point]	–
O=C(O)CC1S/C(=N\N=C2CCCCCC2)N(c2ccccc2)C1=O (stereo unspecified)	inactive	–
N#Cc1ccc(COC(=O)c2ccc3c(=O)[nH]c(CN4CCOCC4)nc3c2)cc1	inconclusive [inhibitor, single point]	–
COC(=O)CCC(=O)OC1(C)C(=O)C=C2C=C(C3CC3)N(CCCOC(C)C)C=C2C1=O (stereo unspecified)	inconclusive [inhibitor, partial curve]	–
Cc1cccc2cc3c(NC(=O)C(C)(C)C)nn(CC(C)C)c3nc12	inconclusive [inhibitor, partial curve]	–
CC1CCCCC1NC(=O)CN1C(=O)CSc2cc(S(=O)(=O)N3CCCCCC3)ccc21 (stereo unspecified)	inconclusive [inhibitor, full curve]	–
CN(C)S(=O)(=O)c1cccc(NC(=O)COC(=O)/C=C/c2ccc(Br)o2)c1	inactive	–
CCCCSCCCNC(=O)Nc1ccc(C)c(C)c1	inconclusive [inhibitor, partial curve]	–
O=c1c(Cl)c(Cl)cnn1Cc1nnc(-c2ccc(Cl)cc2)o1	inactive	–
Cc1nc2sc(C(c3ccco3)N3CCN(c4ccccc4)CC3)c(O)n2n1 (stereo unspecified)	inconclusive [inhibitor, single point]	–
Cc1ccc(NC(=O)Cn2nnc(C(=O)NCc3ccc4c(c3)OCO4)c2N)cc1	inconclusive [inhibitor, partial curve]	–
O=C(O)c1cc(-c2ccc(/C=N/NC(=S)Nc3ccccc3)o2)ccc1Cl	inconclusive [inhibitor, single point]	–
COc1ccc(S(=O)(=O)Nc2ccc3c(c2)n(C)c(=O)n3C)cc1OC	inconclusive [inhibitor, single point]	–
COc1ccc(Br)cc1CNc1ccc(O)cc1	inconclusive [inhibitor, full curve]	–
Cc1nc(C2CCCCC2)c(-c2ccccc2)c(N2CCOC2=O)c1C	inconclusive [inhibitor, partial curve, poor fit]	–
O=C(Nc1ncccn1)c1ccc(Cl)c([N+](=O)[O-])c1	inactive	–
COc1cc(/C=N/NC(=O)C2CCN(CC(O)COCc3ccccc3)CC2)ccc1O (stereo unspecified)	inactive	–
C=C1C(=O)[C@@]23[C@H](O)C[C@@H]4C(C)(C)CC[C@H](O)[C@@]4(C)[C@@H]2CC[C@@H]1[C@H]3O	inconclusive [inhibitor, single point]	–
O=S(=O)(c1ccc(Cl)c(NC(=S)N/N=C/c2c(F)cccc2F)c1)N1CCOCC1	inconclusive [inhibitor, single point]	–
c1csc(CNc2ncnc3ccc(-c4ccc5c(c4)OCCO5)cc23)c1	inconclusive [inhibitor, full curve]	–
CCNC(=O)COc1ccc(/C=C2\COc3ccccc3C2=O)cc1OC	inconclusive [inhibitor, single point]	–
O=C(NCc1ccccc1)c1nc(S(=O)(=O)Cc2ccccc2)ncc1Cl	inactive	–

SMILES	Potency	activity change, negative = inhibition
O=C(c1cccc(S(=O)(=O)N2CCN(c3ccc(F)cc3)CC2)c1)N1CCCC(C(F)(F)F)C1 (stereo unspecified)	inconclusive [inhibitor, partial curve]	–
COc1cccc(CN2CCN(c3ccc(F)cc3)C2=O)c1	inactive	–
CC1Cc2ccccc2N1S(=O)(=O)c1cccc(C(=O)N2CC(=O)Nc3ccccc32)c1 (stereo unspecified)	inconclusive [inhibitor, partial curve, poor fit]	–
Cc1ccc(C(C(=O)NCC2CCCO2)N(C(=O)c2snc(C(N)=O)c2N)c2ccc(C(C)C)cc2)o1 (stereo unspecified)	inconclusive [inhibitor, partial curve]	–
O=C(NC(=S)NCc1ccco1)c1ccc([N+](=O)[O-])cc1	inactive	–
COc1ccc(-c2noc(-c3ccccc3C(=O)Nc3cccnc3)n2)cc1	inconclusive [inhibitor, partial curve, poor fit]	–
CCCCCC(=O)Oc1cccc(N2C(=O)C3CCCCC3C2=O)c1 (stereo unspecified)	inconclusive [inhibitor, partial curve]	–
COc1ccc(/C=C2\N=C(C)OC2=O)cc1OC(C)=O	inactive	–
COc1cc(C(=O)NCCNC(=O)c2ccco2)cc(OC)c1OC	inconclusive [inhibitor, partial curve, poor fit]	–
Cn1c(=O)[nH]c(=O)c2c1nc(N1CCC(Cc3ccccc3)CC1)n2Cc1ccccc1	inconclusive [inhibitor, partial curve]	–
O=C(NC(=S)Nc1ccccc1N1CCCCC1)c1ccccc1	inconclusive [inhibitor, full curve, poor fit]	–
CS(=O)(=O)c1ncc(Cl)c(C(=O)Nc2ccc(OC(F)F)cc2)n1	inactive	–
CCCCNC(=O)C[C@@H]1C[C@@]2(C(=O)OC)CCCCC=C2N(Cc2cccc3ccccc23)C1=O	inconclusive [inhibitor, single point]	–
CCC(C)n1c(NC(=O)c2ccccc2)c(C#N)c2nc3ccccc3nc21 (stereo unspecified)	inconclusive [inhibitor, full curve, poor fit]	–
CCN(CC(=O)NCc1cccs1)C(=O)c1ccc(N(C)S(=O)(=O)c2ccc(C)cc2)cc1	inconclusive [inhibitor, partial curve, poor fit]	–
COc1cc(N=C2C(=O)N3c4c(cccc42)C(C)=CC3(C)C)cc(OC)c1	inactive	–
CN(c1ccccc1)c1ccc(/C=C(/CCC(=O)O)c2nc3ccccc3s2)cc1[N+](=O)[O-]	inconclusive [inhibitor, full curve]	–
O=C(Cn1cc(COc2ccc(Cl)c(Cl)c2)nn1)NS(=O)(=O)c1ccccc1OC(F)(F)F	inconclusive [inhibitor, single point]	–
CCCN(CC1CC1)C(=S)NC(=O)c1ccccc1C	inactive	–
O=C(O)CN1C(=O)/C(=C\c2cc(Br)ccc2OCc2ccc([N+](=O)[O-])cc2)SC1=S	inconclusive [inhibitor, partial curve]	–
C/C(CC(=O)NCc1ccc(Cl)cc1)=N\NC(=O)c1ccccc1F	inconclusive [inhibitor, partial curve]	–
COc1ccc(NS(=O)(=O)c2csc(C(N)=O)c2)cc1OC	inconclusive [inhibitor, single point]	–
